The list shows a part of the results.
B1: PhoQ; a variant is named by its letters at X, in order, P23837 (parent)
chain: MKKLLRLFFPLSLRVRFLLATAAVVLVLSLAYGMVALIGYSVSFDKTTFRLLRGESNLFYTLAKWENNKLHVELPENIDKQSPTMTLIYDENGQLLWAQRDVPWLMKMIQPDWLKSNGFHEIEADVNDTSLLLSGDHSIQQQLQEVREDDDDAEMTHSVAVNVYPATSRMPKLTIVVVDTIPVELKSSYMVWSWFIYVLSANLLLVIPLLWVAAWWSLRPIEALAKEVRELEEHNRELLNPATTRELTSLVRNLNRLLKSERERYDKYRTTLTDLTHSLKTPLXXLQXXLRSLRSEKMSVSDAEPVMLEQISRISQQIGYYLHRASMRGGTLLSRELHPVAPLLDNLTSALNKVYQRKGVNISLDISPEISFVGEQNDFVEVMGNVLDNACKYCLEFVEISARQTDEHLYIVVEDDGPGIPLSKREVIFDRGQRVDTLRPGQGVGLAVAREITEQYEGKIVAGESMLGGARMEVIFGRQHSAPKDE

Variants of: B1
Experiment: enrichment ratio after two sorts for PhoP signalling (ratio (wild type AVST 3.29)); higher = more functional
Conditions: with PhoP (E. coli)

Variant | enrichment ratio
VFKR | ≤ 0.25
FQLQ | 17.7
CNFG | ≤ 0.25
ISYC | ≤ 0.25
MEGS | 1.88
ICYT | ≤ 0.25
WEQA | ≤ 0.25
APHF | ≤ 0.25
QVWH | ≤ 0.25
EFWY | ≤ 0.25
PFCM | ≤ 0.25
SEPQ | ≤ 0.25
IGPY | ≤ 0.25
PGTC | ≤ 0.25
GRYG | ≤ 0.25
EFYV | ≤ 0.25
RKQQ | ≤ 0.25
WEHN | ≤ 0.25
GCYD | ≤ 0.25
DIIS | ≤ 0.25
NPAQ | ≤ 0.25
NTIW | ≤ 0.25
RTFM | ≤ 0.25
LNPY | ≤ 0.25

Variant | enrichment ratio
TIPN | ≤ 0.25
YSQD | ≤ 0.25
SALS | 11.5
LHQF | ≤ 0.25
NLGY | ≤ 0.25
LQRM | ≤ 0.25
WSDK | ≤ 0.25
VQAH | ≤ 0.25
WDGS | ≤ 0.25
ASRC | ≤ 0.25
HHNA | ≤ 0.25
TFRD | ≤ 0.25
DKWH | ≤ 0.25
HSLP | ≤ 0.25
GSIN | ≤ 0.25
TKIE | ≤ 0.25
FWFF | ≤ 0.25
HCWW | ≤ 0.25
QNTW | ≤ 0.25
LFNR | ≤ 0.25
VKAP | ≤ 0.25
QTGQ | ≤ 0.25
QSCE | ≤ 0.25
WRCC | ≤ 0.25

Variant | enrichment ratio
FDMM | ≤ 0.25
DKIS | ≤ 0.25
AWGF | ≤ 0.25
VCSD | ≤ 0.25
YHEV | ≤ 0.25
WDPN | ≤ 0.25
DHLY | ≤ 0.25
QHNS | 5.2
SHFW | 1.68
KDFA | ≤ 0.25
AGAC | 3.28
YRFK | ≤ 0.25
SYTC | ≤ 0.25
DRWG | ≤ 0.25
PFVP | ≤ 0.25
QYPH | ≤ 0.25
AEKS | ≤ 0.25
ICPC | ≤ 0.25
NADQ | ≤ 0.25
LNYV | ≤ 0.25
MWTR | ≤ 0.25
HEIS | ≤ 0.25
KQVA | ≤ 0.25
DSKD | ≤ 0.25

Variant | enrichment ratio
YNYP | ≤ 0.25
LCSL | ≤ 0.25
VRAR | ≤ 0.25
KYPV | ≤ 0.25
LKVW | ≤ 0.25
VWEA | ≤ 0.25
QPQI | ≤ 0.25
IDKS | ≤ 0.25
NYWP | ≤ 0.25
PHQV | ≤ 0.25
GQCF | ≤ 0.25
KPGV | ≤ 0.25
SVMT | 4.75
KPHS | ≤ 0.25
MHYG | ≤ 0.25
ILHL | ≤ 0.25
ALGW | 8.41
TQWM | ≤ 0.25
YQPA | ≤ 0.25
NKDR | ≤ 0.25
SYYP | ≤ 0.25
ESGE | ≤ 0.25
IMSW | ≤ 0.25
DFDD | ≤ 0.25

Variant | enrichment ratio
FVQI | ≤ 0.25
GTTW | ≤ 0.25
LEKT | ≤ 0.25
YDPS | ≤ 0.25
VGVT | ≤ 0.25
YGSH | ≤ 0.25
SSME | 16.6
HREF | ≤ 0.25
RADA | ≤ 0.25
WQPI | ≤ 0.25
DDQW | ≤ 0.25
GTAN | ≤ 0.25
LDWI | ≤ 0.25
EKDC | ≤ 0.25
RIHT | ≤ 0.25
MKEL | ≤ 0.25
WEVV | ≤ 0.25
FQCI | ≤ 0.25
MPQC | ≤ 0.25
GPRA | ≤ 0.25
QSKG | ≤ 0.25
DAPC | ≤ 0.25
TQIK | ≤ 0.25
HCFW | ≤ 0.25

Variant | enrichment ratio
KGIH | ≤ 0.25
FLLN | ≤ 0.25
MVLK | 1.76
AFFL | ≤ 0.25
WQIG | ≤ 0.25
YAVV | ≤ 0.25
HQSE | ≤ 0.25
LSNL | ≤ 0.25
LMGS | ≤ 0.25
EVIS | ≤ 0.25
YPPA | ≤ 0.25
YNIR | ≤ 0.25
SGDA | ≤ 0.25
RNGI | ≤ 0.25
FINQ | ≤ 0.25
LLSE | ≤ 0.25
VYRD | ≤ 0.25
RFAD | ≤ 0.25
LSYY | 2.31
VWKV | ≤ 0.25
TCVR | ≤ 0.25
RSLS | ≤ 0.25
PSCV | ≤ 0.25
SFPY | ≤ 0.25

Variant | enrichment ratio
ILRQ | ≤ 0.25
PIVT | ≤ 0.25
VLIT | ≤ 0.25
GCHK | ≤ 0.25
VRFK | ≤ 0.25
VWLR | ≤ 0.25
VSPI | ≤ 0.25
IVDP | ≤ 0.25
EDMI | ≤ 0.25
MPTK | ≤ 0.25
NGKF | 0.291
NSSN | ≤ 0.25
VDVI | 0.415
YFLD | ≤ 0.25
YTDM | ≤ 0.25
YAKD | ≤ 0.25
QKQF | ≤ 0.25
YGSL | ≤ 0.25
PGTR | ≤ 0.25
QHKP | ≤ 0.25
TPYW | ≤ 0.25
WVVS | ≤ 0.25
NYWI | ≤ 0.25
VLRN | ≤ 0.25

Variant | enrichment ratio
TIVI | ≤ 0.25
WDCI | ≤ 0.25
KMQW | ≤ 0.25
VRID | ≤ 0.25
SYVW | ≤ 0.25
RDHH | ≤ 0.25
KVSR | ≤ 0.25
HIVG | ≤ 0.25
LGIP | ≤ 0.25
SNNS | 7.54
WART | ≤ 0.25
YPQP | ≤ 0.25
ICMV | 13.2
FCWY | 7.07
DAWA | ≤ 0.25
ASSN | 7.01
HISW | ≤ 0.25
VSNI | ≤ 0.25
ESCY | ≤ 0.25
ISNH | ≤ 0.25
ALCA | 3.41
QDAA | ≤ 0.25
QNVY | ≤ 0.25
GTYD | ≤ 0.25

Variant | enrichment ratio
NFLA | ≤ 0.25
VWDH | ≤ 0.25
HGCN | ≤ 0.25
LKKC | ≤ 0.25
KLRL | 0.686
LCTA | ≤ 0.25
NWRL | ≤ 0.25
DQVQ | ≤ 0.25
WWWI | ≤ 0.25
TCNR | ≤ 0.25
KTMT | ≤ 0.25
RSKS | ≤ 0.25
ICWS | ≤ 0.25
YAQQ | ≤ 0.25
DLIL | ≤ 0.25
QVGP | ≤ 0.25
KKDI | ≤ 0.25
KIVQ | ≤ 0.25
PACQ | ≤ 0.25
ILDD | ≤ 0.25
KLSV | ≤ 0.25
SPYV | ≤ 0.25
IYPF | ≤ 0.25
ALFY | ≤ 0.25

Variant | enrichment ratio
VYEF | ≤ 0.25
PAEL | ≤ 0.25
IDMK | ≤ 0.25
SWWH | ≤ 0.25
RLQE | ≤ 0.25
EPRC | ≤ 0.25
LHKP | ≤ 0.25
LAYQ | 7
RVSW | ≤ 0.25
PWVP | ≤ 0.25
WGPC | ≤ 0.25
YQHH | ≤ 0.25
MQYC | 9.43
WGHK | ≤ 0.25
WHMI | ≤ 0.25
KGIN | ≤ 0.25
RQKF | ≤ 0.25
MLMV | ≤ 0.25
GQDT | ≤ 0.25
WHFN | ≤ 0.25
VHNE | ≤ 0.25
IECP | ≤ 0.25
SYIE | ≤ 0.25
RAFY | ≤ 0.25

Variant | enrichment ratio
THFQ | ≤ 0.25
TVTK | 2.6
FFCV | ≤ 0.25
TTHN | 15.7
GIFG | ≤ 0.25
RTQC | ≤ 0.25
MHLM | 1.26
GEGI | ≤ 0.25
AVKL | ≤ 0.25
LECM | 17.2
YEFG | ≤ 0.25
IRRA | ≤ 0.25
LPEG | ≤ 0.25
WTEK | ≤ 0.25
YDTG | ≤ 0.25
EDSQ | ≤ 0.25
WSIP | 0.327
QRCS | ≤ 0.25
AYYN | ≤ 0.25
HGHF | ≤ 0.25
MPIL | ≤ 0.25
QKMH | ≤ 0.25
MHHC | ≤ 0.25
YTST | ≤ 0.25

Variant | enrichment ratio
QGTM | 5.9
HSCC | 1.15
NFVP | ≤ 0.25
RFLY | ≤ 0.25
QIDT | ≤ 0.25
MMHL | 1.34
MADA | ≤ 0.25
RKKM | ≤ 0.25
VRED | ≤ 0.25
FRFN | ≤ 0.25
RWVP | ≤ 0.25
AHDD | ≤ 0.25
QAKQ | ≤ 0.25
GYCK | ≤ 0.25
NLGQ | ≤ 0.25
RFHA | ≤ 0.25
RGGC | ≤ 0.25
PDAG | ≤ 0.25
LYSV | ≤ 0.25
RARI | ≤ 0.25
MDHY | 0.429
FLPF | ≤ 0.25
KTNI | ≤ 0.25
PKYS | ≤ 0.25

Variant | enrichment ratio
AGML | 16.1
WVKR | ≤ 0.25
WYEG | ≤ 0.25
EECT | ≤ 0.25
WPSK | ≤ 0.25
SYRR | ≤ 0.25
SDAG | ≤ 0.25
QNFA | ≤ 0.25
QELK | ≤ 0.25
LGSL | ≤ 0.25
TVPS | ≤ 0.25
RSRC | ≤ 0.25
MQCF | ≤ 0.25
WVHM | ≤ 0.25
MLNP | ≤ 0.25
HSPC | ≤ 0.25
DSLH | ≤ 0.25
THQV | 5.35

Reference: a collection of fitness landscapes (doi:10.1126/science.1257360)
